The results in this text go back to publication PMC9911399, “Two distinct binding modes provide the RNA-binding protein RbFox with extraordinary sequence specificity”.

Positions count from the first letter of the chain named. This is one part of the list.

T1: RBFOX1 RRM RbFoxmut (Fox-RRM*) (Homo sapiens, UniProt Q9NWB1 109-208, R118D;E147R;N151S;E152T)
T1 sequence: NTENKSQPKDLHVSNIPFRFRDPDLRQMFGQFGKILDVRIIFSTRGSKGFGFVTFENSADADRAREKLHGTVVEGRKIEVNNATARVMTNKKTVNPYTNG

B1: UAGAUAA (DNA:RNA)
RNA: GGGAGACCGGAAUUCAGAUUGUCCUAGAUAAUUAAAUCCCGUCGUAGCCACCA
DNA 1: CAATCTGAATTCCGGTCTCCC
DNA 2: TGGTGGCTACGACGGGATT
B2: UAAUAAA (DNA:RNA)
RNA: B1 RNA with G27A, A28U, U29A
DNA 1: CAATCTGAATTCCGGTCTCCC
DNA 2: TGGTGGCTACGACGGGATT
B3: AGGGUUG (DNA:RNA)
RNA: B1 RNA with U25A, A26G, A28G, A30U, A31G
DNA 1: CAATCTGAATTCCGGTCTCCC
DNA 2: TGGTGGCTACGACGGGATT
B4: AUGGUGC (DNA:RNA)
RNA: B1 RNA with U25A, A26U, A28G, A30G, A31C
DNA 1: CAATCTGAATTCCGGTCTCCC
DNA 2: TGGTGGCTACGACGGGATT
B5: CACGAUU (DNA:RNA)
RNA: B1 RNA with U25C, G27C, A28G, U29A, A30U, A31U
DNA 1: CAATCTGAATTCCGGTCTCCC
DNA 2: TGGTGGCTACGACGGGATT
B6: UGAAGUC (DNA:RNA)
RNA: B1 RNA with A26G, G27A, U29G, A30U, A31C
DNA 1: CAATCTGAATTCCGGTCTCCC
DNA 2: TGGTGGCTACGACGGGATT
B7: UCCACGU (DNA:RNA)
RNA: B1 RNA with A26C, G27C, U29C, A30G, A31U
DNA 1: CAATCTGAATTCCGGTCTCCC
DNA 2: TGGTGGCTACGACGGGATT
B8: GAUCCAG (DNA:RNA)
RNA: B1 RNA with U25G, G27U, A28C, U29C, A31G
DNA 1: CAATCTGAATTCCGGTCTCCC
DNA 2: TGGTGGCTACGACGGGATT
B9: CUCAUUG (DNA:RNA)
RNA: B1 RNA with U25C, A26U, G27C, A30U, A31G
DNA 1: CAATCTGAATTCCGGTCTCCC
DNA 2: TGGTGGCTACGACGGGATT
B10: CCGCCUU (DNA:RNA)
RNA: B1 RNA with U25C, A26C, A28C, U29C, A30U, A31U
DNA 1: CAATCTGAATTCCGGTCTCCC
DNA 2: TGGTGGCTACGACGGGATT
B11: AGUGGGA (DNA:RNA)
RNA: B1 RNA with U25A, A26G, G27U, A28G, U29G, A30G
DNA 1: CAATCTGAATTCCGGTCTCCC
DNA 2: TGGTGGCTACGACGGGATT
B12: GCCUGUU (DNA:RNA)
RNA: GGGAGACCGGAAUUCAGAUUGUCCGCCUGUUUUAAAUCCCGUCGUAGCCACCA
DNA 1: CAATCTGAATTCCGGTCTCCC
DNA 2: TGGTGGCTACGACGGGATT
B13: GGGGUAG (DNA:RNA)
RNA: B1 RNA with U25G, A26G, A28G, A31G
DNA 1: CAATCTGAATTCCGGTCTCCC
DNA 2: TGGTGGCTACGACGGGATT
B14: AGGUGCG (DNA:RNA)
RNA: B12 RNA with G25A, C26G, C27G, U30C, U31G
DNA 1: CAATCTGAATTCCGGTCTCCC
DNA 2: TGGTGGCTACGACGGGATT
B15: GGGACCG (DNA:RNA)
RNA: B1 RNA with U25G, A26G, U29C, A30C, A31G
DNA 1: CAATCTGAATTCCGGTCTCCC
DNA 2: TGGTGGCTACGACGGGATT
B16: AGAGGGU (DNA:RNA)
RNA: B12 RNA with G25A, C26G, C27A, U28G, U30G
DNA 1: CAATCTGAATTCCGGTCTCCC
DNA 2: TGGTGGCTACGACGGGATT
B17: CGUGGUA (DNA:RNA)
RNA: B12 RNA with G25C, C26G, C27U, U28G, U31A
DNA 1: CAATCTGAATTCCGGTCTCCC
DNA 2: TGGTGGCTACGACGGGATT
B18: GCGGCUG (DNA:RNA)
RNA: B12 RNA with C27G, U28G, G29C, U31G
DNA 1: CAATCTGAATTCCGGTCTCCC
DNA 2: TGGTGGCTACGACGGGATT
B19: UUGGGUG (DNA:RNA)
RNA: B12 RNA with G25U, C26U, C27G, U28G, U31G
DNA 1: CAATCTGAATTCCGGTCTCCC
DNA 2: TGGTGGCTACGACGGGATT
B20: AAGUCGG (DNA:RNA)
RNA: B1 RNA with U25A, A28U, U29C, A30G, A31G
DNA 1: CAATCTGAATTCCGGTCTCCC
DNA 2: TGGTGGCTACGACGGGATT

The target of this assay is T1, RBFOX1 RRM RbFoxmut (Fox-RRM*). The assay can be described thus: EMSA; HiTS-Eq, 1 nM pool, 10 min; buffer printed only for the single-RNA assays: 10 mM Tris pH 7.5, 150 mM NaCl, 3.4 mM EDTA, 0.001% NP-40, 30 C. Particulars: tags: His6 N-terminal (pET28a); label: 5' 32P. The gist of the method: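 Purified RbFox RRM (wild type or mutant) was equilibrated for 10 min in 50 µL with 1 nM of a 5′-radiolabelled pool of RNA with 7 randomized nucleotides, its flanks annealed to DNA oligonucleotides, across increasing protein concentrations. Free RNA was separated by 8% native PAGE, excised, reverse-transcribed, PCR-barcoded and sequenced on an Illumina HiSeq 2500. Relative association constants came from read-count changes of each variant against the control reaction, normalised to the cognate motif.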
(A gel shift assay detects complexes by their altered migration in electrophoresis.)
Regarding B1, the binding signal was 0.0537 KA relative to UGCAUGU.

Turning to B2, the binding signal is 0.0817 KA relative to UGCAUGU.

Consider B3, for which the binding signal is 0.578 KA relative to UGCAUGU.

With B4, the binding signal is 0.153 KA relative to UGCAUGU.

Consider B5, for which the binding signal was 0.0594 KA relative to UGCAUGU.

Turning to B6, the binding signal is 0.0792 KA relative to UGCAUGU.

For B7, the binding signal was 0.0978 KA relative to UGCAUGU.

For B8, the binding signal is 0.0769 KA relative to UGCAUGU.

Regarding B9, the binding signal was 0.13 KA relative to UGCAUGU.

With B10, the binding signal is 0.106 KA relative to UGCAUGU.

B11: the binding signal is 0.0902 KA relative to UGCAUGU.

Turning to B12, the binding signal is 0.15 KA relative to UGCAUGU.

Take B13: the binding signal is 0.174 KA relative to UGCAUGU.

Consider B14, for which the binding signal is 0.22 KA relative to UGCAUGU.

As for B15, the binding signal was 0.189 KA relative to UGCAUGU.

As to B16, the binding signal was 0.096 KA relative to UGCAUGU.

Take B17: the binding signal was 0.243 KA relative to UGCAUGU.

Turning to B18, the binding signal was 0.203 KA relative to UGCAUGU.

For B19, the binding signal was 0.373 KA relative to UGCAUGU.

On to B20, for which the binding signal was 0.103 KA relative to UGCAUGU.
